About 2,200 (0.71%) of roughly 310,000 compounds showed an effect of 50% or more. The effect is printed as a negative number. The list shows a part of the results.

For this test, the target named is human ether-à-go-go-related gene (hERG) potassium channel (human, UniProt Q12809). Description: primary screen, population patch clamp on CHO cells stably expressing hERG.
Sequence of human ether-à-go-go-related gene (hERG) potassium channel (Q12809 whole entry, looked up): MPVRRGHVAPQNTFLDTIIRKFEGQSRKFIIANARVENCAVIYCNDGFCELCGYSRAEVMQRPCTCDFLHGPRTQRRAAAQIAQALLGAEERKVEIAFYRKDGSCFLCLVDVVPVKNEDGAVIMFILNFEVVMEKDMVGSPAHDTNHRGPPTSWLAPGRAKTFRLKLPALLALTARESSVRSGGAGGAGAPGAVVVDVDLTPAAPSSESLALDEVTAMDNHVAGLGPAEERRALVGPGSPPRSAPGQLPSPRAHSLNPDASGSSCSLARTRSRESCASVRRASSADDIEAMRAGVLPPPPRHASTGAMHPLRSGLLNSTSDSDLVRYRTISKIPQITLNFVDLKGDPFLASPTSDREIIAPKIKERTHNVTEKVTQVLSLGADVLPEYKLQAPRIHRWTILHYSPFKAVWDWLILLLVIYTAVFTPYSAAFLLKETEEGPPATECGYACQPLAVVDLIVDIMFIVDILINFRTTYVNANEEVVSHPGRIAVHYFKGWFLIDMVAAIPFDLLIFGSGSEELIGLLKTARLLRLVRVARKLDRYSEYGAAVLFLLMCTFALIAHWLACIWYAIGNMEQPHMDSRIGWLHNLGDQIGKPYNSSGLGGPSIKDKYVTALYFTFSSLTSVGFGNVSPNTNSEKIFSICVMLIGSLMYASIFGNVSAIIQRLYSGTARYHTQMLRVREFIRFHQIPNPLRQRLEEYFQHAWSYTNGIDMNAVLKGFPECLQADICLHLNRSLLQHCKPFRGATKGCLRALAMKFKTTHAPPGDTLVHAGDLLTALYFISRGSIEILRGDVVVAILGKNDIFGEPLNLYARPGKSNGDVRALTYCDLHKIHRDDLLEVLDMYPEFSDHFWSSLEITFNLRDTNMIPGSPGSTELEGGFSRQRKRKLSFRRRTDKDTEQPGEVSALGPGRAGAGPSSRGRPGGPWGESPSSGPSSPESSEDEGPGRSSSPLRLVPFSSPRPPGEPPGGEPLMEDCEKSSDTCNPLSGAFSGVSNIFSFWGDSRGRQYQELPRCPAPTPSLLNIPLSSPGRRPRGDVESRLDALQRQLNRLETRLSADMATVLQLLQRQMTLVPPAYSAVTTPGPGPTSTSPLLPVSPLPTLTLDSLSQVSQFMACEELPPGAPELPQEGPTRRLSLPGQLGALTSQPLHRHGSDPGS
Regarding `Cc1nonc1NC(=O)CSc1nc2ccccc2cc1C#N`, the “hERG current change (%, negative = inhibition) at 1uM” value worked out at 11.7%.
To `Oc1ccc(Cl)cc1N=Nc1ccccc1` belongs 0.683%.
As for `C=CCN(CC=C)C(=S)Nc1ccc(OC)c(OC)c1`, the “hERG current change (%, negative = inhibition) at 1uM” value is listed as 5.85%.
As to `CC(Oc1ccc(Cl)cc1)c1ccnn1S(=O)(=O)c1ccc(Cl)cc1` (stereo not shown), the “hERG current change (%, negative = inhibition) at 1uM” value was 7.5%.
As for `CP(=O)(Nc1cc(Cl)ccc1Cl)c1nc2c(s1)CCCC2` (stereo not shown), the “hERG current change (%, negative = inhibition) at 1uM” value is reported as 4.84%.
To `COc1ccc(N(CC(=O)NCc2ccc(Cl)cc2)S(=O)(=O)c2ccccc2[N+](=O)[O-])c(OC)c1` belongs 2.71%; to `CC(CC(=O)NCCc1ccc(S(N)(=O)=O)cc1)c1ccccc1` (stereo not shown), 17.2%.
As to `Cc1ccc(C)c(N=Cc2cc3c(cc2[N+](=O)[O-])OCO3)c1`, the “hERG current change (%, negative = inhibition) at 1uM” value was 13.5%.
To `COc1ccc([C@H]2CC(=O)C=C(c3cc(C)ccc3F)C2)cc1` belongs 9.63%; to `C/C(=C/C(=O)N1CCc2ccccc21)C(=O)O`, 6.02%; to `c1cc(-c2nnc(-c3ccncc3)o2)ccn1`, 15.3%.
Consider `CC1(C)CC(NC(=O)C23CCC(C)(/C(=N/O)C2)C3(C)C)CC(C)(C)N1` (stereo not shown), for which the “hERG current change (%, negative = inhibition) at 1uM” value came to 3.83%.
To `O=C(CNS(=O)(=O)/C=C/c1ccccc1)OCC(=O)N1CCC(Cc2ccccc2)CC1` belongs 1.78%; to `CCOC(=O)C1CCN(S(=O)(=O)c2nc3nc(C)cc(C)n3n2)CC1`, 0.508%.
Turning to `Cc1ccc2nc(-c3cccnc3)oc2c1`, the “hERG current change (%, negative = inhibition) at 1uM” value is 16.3%.
As to `CCc1nnc(NS(=O)(=O)c2ccc(NCc3ccccc3O)cc2)s1`, the “hERG current change (%, negative = inhibition) at 1uM” value is on record as 15.4%.
To `COc1ccc(CC(=O)Nc2nc(C)cs2)cc1` belongs 9.78%.
To `COc1ccccc1N1CCN(C(=O)c2cc3c(C)nc4ccccc4c3o2)CC1` belongs 8.29%; to `CCC(Cc1ccccc1)NC(=O)C1CCCCC1` (stereo not shown), 3.89%; to `O=C1CC(c2ccco2)c2ccc3ccccc3c2N1` (stereo not shown), -1.85%.
Regarding `CCOC(=O)C1=NN(c2ccccc2)C2(S1)SC(C(C)=O)=C(C)N2c1ccccc1` (stereo not shown), the “hERG current change (%, negative = inhibition) at 1uM” value is 10.1%.
For `CCn1c(=O)c2c3c(sc2n2c(SCc4ccc(F)cc4)nnc12)CCCC3` the value was -0.131%; for `Cc1ccc(F)c(NC(=O)c2c(-c3ccccc3)noc2C)c1`, 1.1%.
For `CSc1ccc2nnc(-c3cccc(F)c3)n2n1` the value was -4.53%; for `Cc1ccc(N(CC(=O)N2CCc3ccccc32)C2=NC(=O)CS2)cc1`, 13.9%; for `CC12CCC(=O)N1C(C(=O)Nc1nc(-c3cc(F)ccc3F)cs1)CS2` (stereo not shown), 6.92%.
In the case of `Cc1nc(Cl)c(C(=O)NCc2ccccc2)c(C)c1[N+](=O)[O-]`, the “hERG current change (%, negative = inhibition) at 1uM” value was 7.31%.
For `Cc1ccc(C)c(S(=O)(=O)C(C#N)c2nc3ccccc3nc2N2CCCC2)c1` (stereo not shown) the value was 2.59%; for `CSc1nc2c(c(=O)[nH]1)C(c1cccc(Cl)c1)CC(=O)N2` (stereo not shown), 6.55%.
To `COc1ccc(/C=N/NC(=O)CNS(=O)(=O)c2ccc(C)cc2)cc1` belongs 15%; to `COc1ccccc1CNC(=O)Cn1ccsc1=N.Cl`, 4.74%; to `Cc1ccc(C(=O)c2coc3ccc(OCC(=O)O)cc23)cc1`, 6.79%.
For `CCCCc1cc(=O)oc2cc(OCc3cc(OC)c(OC)c(OC)c3)c(Cl)cc12` the value was 18.1%; for `CCn1c(CCCOc2ccc(Cl)cc2Cl)n[nH]c1=S`, 9.72%.
With `CC(C)OCC(O)CSc1ccccn1` (stereo not shown), the “hERG current change (%, negative = inhibition) at 1uM” value is -6.78%.
Consider `CCOC(=O)c1ccc2nc(C)c3c(c2c1)OC(C)C3` (stereo not shown), for which the “hERG current change (%, negative = inhibition) at 1uM” value is -6.37%.
As for `Cc1ccccc1NC(=O)C(NC1CCCCC1)C(C)C` (stereo not shown), the “hERG current change (%, negative = inhibition) at 1uM” value was 5.28%.
For `O=C(Cn1cccc1C(=O)c1ccccc1)NCc1ccccc1Cl` the value was 13.7%.
To `c1ccc(-c2nc3ccccc3nc2N2CCOCC2)cc1` belongs -10.6%.
Consider `Cc1ccccc1CC1(CO)CCCN(Cc2ccccc2Cl)C1` (stereo not shown), for which the “hERG current change (%, negative = inhibition) at 1uM” value stood at 6.77%.
To `NC(=O)CSc1nnc(NC(=O)c2cccc(S(=O)(=O)N3CCCCC3)c2)s1` belongs 19.1%.
For `Cc1noc(C)c1COc1ccccc1C(=O)NCCOc1ccccc1F` the value was 19.8%; for `CN=C1SC(CC(=O)Nc2ccc(C(C)=O)cc2)C(=O)N1C` (stereo not shown), -6.31%.
Consider `CCOc1ccc(C2C(C(=O)OC)=C(C)N=C3SCCC(=O)N32)cc1OCC` (stereo not shown), for which the “hERG current change (%, negative = inhibition) at 1uM” value came to 9.53%.
For `O=C(Cc1cccc2ccccc12)N/N=C/c1ccc(OC(=O)/C=C/c2ccco2)cc1` the value was 8.69%; for `Cc1cccc(-n2c(O)c(C=NC3CCS(=O)(=O)C3)c3ccccc3c2=O)c1` (stereo not shown), 5.75%; for `O=C(NCc1ccccc1Br)C1CCCO1` (stereo not shown), 22.3%.
For `CCCn1c(C(C)Nc2nc(-c3ccc(Cl)c([N+](=O)[O-])c3)cs2)nc2ccccc21` (stereo not shown) the value was 16.1%; for `Cc1ccc(-n2nc(C)c3c(C(=O)OCC(=O)N(C)C4CCS(=O)(=O)C4)cc(-c4ccccc4)nc32)cc1` (stereo not shown), 13.6%.
For `COc1ccc(NC(=O)CSC2=C(C#N)C(c3ccco3)C3=C(CCCC3=O)N2)c(OC)c1` (stereo not shown) the value was -6.62%; for `CC(C)NC(=O)c1nc2c(nnn2Cc2cccc(Cl)c2)c(=O)[nH]1`, 15.2%; for `COc1cc(N/C(=N/S(=O)(=O)c2ccccc2)c2ccccc2)ncn1`, 12.2%.
For `O=C(CNC(=O)c1ccc(Br)o1)Nc1ncccc1O`, the “hERG current change (%, negative = inhibition) at 1uM” value is recorded as 12.7%.
In the case of `COc1ccc(-c2csc(Cc3nnc(N4CCOCC4)n3-c3ccccc3)n2)cc1`, the “hERG current change (%, negative = inhibition) at 1uM” value came to 14.8%.
For `COc1ccc2c(c1)C(c1ccccc1)=NNC(c1ccco1)=N2` the value was 0.252%; for `O=S(=O)(NC1CCCC1)c1ccc(S(=O)(=O)N2CCN(c3ccccc3)CC2)cc1`, -2.62%; for `COc1cccc(NC(=O)C2CC2)c1`, 5.97%.
`CCN1CCN=C1Nc1ccccc1`: the “hERG current change (%, negative = inhibition) at 1uM” value worked out at 11.1%.
For `CN(C)C(CNC(=O)CCNC(=O)c1ccccc1Cl)c1ccco1` (stereo not shown) the value was 6.07%; for `CCOc1ccc(CN(C)CC(=O)Nc2cc(C)c(C)cc2[N+](=O)[O-])cc1.CN(C)C=O`, 14.1%; for `CCC1CCC(N2CCN(c3cccc(OC)c3)CC2)CC1` (stereo not shown), 8.18%.
To `CCn1c(=O)c2ccccc2n(CC(=O)N2CCCc3ccccc32)c1=O` belongs 9.8%.
To `Nc1nc(SCC(=O)Nc2ccc(Cl)cc2C(F)(F)F)n[nH]1` belongs 13.2%; to `CC(=O)C1=C(O)C(=O)OC1c1ccc(Cl)cc1` (stereo not shown), 11.9%; to `O=C(CSc1cccc2cccc(Cl)c12)NC1=NCCS1`, 2.37%.
Turning to `CCN1C(=O)C(NC(C)=O)c2cc(OC)ccc21` (stereo not shown), the “hERG current change (%, negative = inhibition) at 1uM” value came to 6.3%.
For `CCOC(=O)c1sc(N(C)C)nc1-c1ccccc1` the value was 9.11%; for `CC(/C=C/c1ccc2c(c1)OCO2)=N\NC(=O)c1ccccc1`, 11.9%; for `COc1ccc(CN(Cc2cc3cccc(C)c3n3nnnc23)C(=O)N2CCOCC2)cc1`, 21.8%.
For `CCOC(=O)C1CCN(C(c2cccs2)c2sc3nc(C)nn3c2O)CC1` (stereo not shown), the “hERG current change (%, negative = inhibition) at 1uM” value amounted to 3.92%.
On to `CCC(=O)Nc1ccc(N2CCOCC2)c(S(=O)(=O)Nc2ccc(OC)cc2)c1`, for which the “hERG current change (%, negative = inhibition) at 1uM” value stood at 7.08%.
For `CCN1CCN(CCc2nc3cc([N+](=O)[O-])ccc3n2C)CC1` the value was -1.88%; for `CCOc1ccc(OCC)c(NC(=O)Cn2cccc2)c1`, 3.15%; for `CN(CC(=O)Nc1cccc(F)c1)C(=O)c1cc(-c2ccccc2)nc2ccccc12`, 20.8%.
To `Cc1cccc(C)c1OCC(=O)Nc1ccccc1C(F)(F)F` belongs 12.6%.
For `O=C(O)c1ccc(S(=O)(=O)N2CCSCC2)cc1` the value was 19.9%.
`Cc1ccc(C(=O)Nc2ccc3ccccc3n2)cc1`: the “hERG current change (%, negative = inhibition) at 1uM” value is recorded as -4.83%.
Turning to `Cc1onc(-c2ccccc2)c1C(=O)OCC(=O)N1CCN(c2ccccc2)CC1`, the “hERG current change (%, negative = inhibition) at 1uM” value is listed as -2.51%.
For `CCC(=O)OC1(c2ccccc2)C(C)CN(C)CC1C.Cl` (stereo not shown) the value was 8.82%; for `CC1(C)CC(NC(=O)c2cccc(F)c2)CC(C)(C)N1`, 18.1%.
Regarding `Cc1cc(C)n(C(=O)COc2ccccc2[N+](=O)[O-])n1`, the “hERG current change (%, negative = inhibition) at 1uM” value is reported as 8.89%.
To `O=c1c2ccccc2nnn1CSc1nnc2ccccn12` belongs 6.78%; to `CCOCCCNC(=O)C1c2ccccc2C(=O)N2CCc3ccccc3C12` (stereo not shown), 5.53%; to `C[n+]1ccc(-c2ccncc2)cc1.[I-]`, 14.5%.
For `COc1ccccc1CNC(c1ccccc1)c1ccccc1` the value was 9.08%.
For the compound `O=C(O)c1ccccc1N=Cc1c(O)n(-c2nccs2)c(=O)c2ccccc12`, the “hERG current change (%, negative = inhibition) at 1uM” value turned out to be 13.1%.
To `COC(=O)[C@H](Cc1ccccc1)NC(=O)Nc1ccc(C)cc1` belongs 10.5%.
To `Cc1cc(C)c(NC(=O)C2CCN(c3cnccn3)CC2)c(C)c1` belongs 11.2%; to `CCN1C(=O)[C@H]2[C@@H](c3ccc(-c4ccc(OC)cc4)cc3)N3CCCC[C@@]3(C(=O)OC)[C@H]2C1=O.O=C(O)C(F)(F)F`, 3.6%; to `COc1ccc(C)cc1NC(=O)NNS(=O)(=O)c1ccc(NC(C)=O)cc1`, 9.8%.
For `O=C(NC1CCN(Cc2ccccc2)CC1)c1cccc(Br)c1`, the “hERG current change (%, negative = inhibition) at 1uM” value is listed as -20%.

The record behind these values is article PMC4336329 (PLoS ONE, 2015).
